The supplement of paper PMC3334620
Whole data set: some 33,000 sequences, median “E-score (-0.5 to 0.5)” near -0.011, cut for the highest 2% near 0.28. This is one part of the list.

Each sequence was assayed against T1, Gcr1 (UniProt P07261) (assay: PBM E-score (8-mer binding enrichment) (E-score (-0.5 to 0.5)); higher = stronger / more preferred TF binding; most listed sequences are background and not binding sites). Settings: protein concentration: 100 nM; construct: GST-full length.
T1 sequence: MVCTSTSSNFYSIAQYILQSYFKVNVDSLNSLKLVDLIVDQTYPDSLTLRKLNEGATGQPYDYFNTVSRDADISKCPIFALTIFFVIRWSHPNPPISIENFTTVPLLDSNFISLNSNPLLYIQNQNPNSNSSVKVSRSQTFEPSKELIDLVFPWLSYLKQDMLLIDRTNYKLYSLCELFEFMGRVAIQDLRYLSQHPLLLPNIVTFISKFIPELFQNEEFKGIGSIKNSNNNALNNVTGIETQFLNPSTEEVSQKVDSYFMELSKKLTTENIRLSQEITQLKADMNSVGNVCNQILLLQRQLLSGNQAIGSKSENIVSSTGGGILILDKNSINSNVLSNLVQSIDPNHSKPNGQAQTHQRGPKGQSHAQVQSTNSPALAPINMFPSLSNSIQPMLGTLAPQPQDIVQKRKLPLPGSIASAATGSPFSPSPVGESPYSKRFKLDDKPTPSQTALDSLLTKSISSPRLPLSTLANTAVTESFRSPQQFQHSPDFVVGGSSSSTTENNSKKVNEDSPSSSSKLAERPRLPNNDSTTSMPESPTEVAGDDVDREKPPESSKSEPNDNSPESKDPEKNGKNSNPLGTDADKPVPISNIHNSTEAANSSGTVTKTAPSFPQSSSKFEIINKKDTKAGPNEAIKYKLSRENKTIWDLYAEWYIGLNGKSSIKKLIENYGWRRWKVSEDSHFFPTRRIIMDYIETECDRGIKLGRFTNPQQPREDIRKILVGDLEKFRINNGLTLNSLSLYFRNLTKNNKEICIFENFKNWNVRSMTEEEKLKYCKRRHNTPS
Summary of the method: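 Each ungapped eight-base word and its reverse complement, pooled, received an E-score from the Universal PBM Analysis Suite. Underlying scans, normalised with masliner, recorded fluorescent anti-GST bound to GST-tagged yeast transcription factors. These were applied at about 100-200 nM to universal all-10-mer Agilent arrays double-stranded by primer extension.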

| Sequence | PBM E-score |
| --- | --- |
| ACCTGCTC | -0.0301 |
| CCCCACTC | 0.152 |
| AGCTGGCG | 0.00555 |
| GCAATTCA | -0.221 |
| GAGCCGTA | 0.0183 |
| CGCACGTC | -0.0974 |
| CACCAATA | 0.167 |
| CTGGGGTC | 0.0575 |
| CGCTATTA | 0.168 |
| AGGTATCG | 0.019 |
| AAGTCTAT | 0.0558 |
| CATTTGGG | 0.216 |
| CAAAGGAA | 0.104 |
| ACCGTCAC | -0.219 |
| CTTAGGCA | -0.0505 |
| TATGCGAA | 0.0856 |
| CGTTGTAG | -0.147 |
| AACGCTTA | -0.126 |
| GACATCTC | -0.116 |
| AAGAGGTA | -0.13 |
| AAGCCAGT | -0.0499 |
| AGTCGATG | -0.0398 |
| ATCGCTCG | 0.09 |
| ACTACACT | -0.0164 |
| ACGATAAC | 0.0529 |

| Sequence | PBM E-score |
| --- | --- |
| ACTGGAAC | 0.301 |
| TTTATAAA | 0.142 |
| AATCCCTG | 0.167 |
| TGGACACA | -0.0955 |
| GCAGGGTA | -0.111 |
| ATGAGGTG | -0.0423 |
| GTGGCCAC | -0.0489 |
| GACGGTGC | -0.0434 |
| AGCGTTGA | -0.381 |
| GAGGCAAA | -0.049 |
| AAGACGAG | -0.267 |
| ATGTCACG | 0.0881 |
| CGATGATC | -0.106 |
| ACTCGCGG | -0.102 |
| AGGGAGGC | -0.116 |
| CCTAGCGA | -0.154 |
| ATTATAAA | 0.0621 |
| GAGGTTGA | 0.0451 |
| ACTGCATC | -0.111 |
| CGGTTAAA | -0.039 |
| GCAGAGAC | -0.0616 |
| GAGTACGC | -0.259 |
| TTGAGCAA | -0.0965 |
| AAGCCCCG | 0.129 |
| AATTTGAC | 0.0583 |

| Sequence | PBM E-score |
| --- | --- |
| GACTCAGA | -0.127 |
| CAGACCAC | -0.158 |
| TACCGAGA | 0.027 |
| ACCACCGA | -0.191 |
| CGACAAAA | 0.213 |
| CTGGACAA | -0.0593 |
| CAACCCAG | 0.00319 |
| AACCTTGG | -0.0368 |
| CGCATTAA | 0.0367 |
| CCTCCTGC | -0.0964 |
| ACCATCTC | -0.0298 |
| CCCTCACA | -0.208 |
| CCGATACC | 0.0297 |
| TCCAGAGA | -0.0181 |
| TCAATAAA | 0.0698 |
| CTTTTGGA | 0.194 |
| AGAGGACC | -0.188 |
| GGTTTTGA | -0.194 |
| GGTTCAGA | -0.0928 |
| AGTGCGAT | 0.142 |
| TCTGCCCA | -0.249 |
| CGAACAAA | -0.0237 |
| TATTCGCA | 0.144 |
| GTATCGAA | 0.115 |
| CTTTTCGA | -0.00691 |

| Sequence | PBM E-score |
| --- | --- |
| GCATGGTA | 0.103 |
| AAAGAACT | -0.182 |
| CTTCACGA | -0.0926 |
| AGTATCGC | 0.161 |
| ATTCAGGA | 0.282 |
| ATAGAGGC | 0.174 |
| CCATATGA | 0.0373 |
| TCTCTAAA | 0.00221 |
| GCGGCGCC | 0.324 |
| GCACGCCA | -0.0682 |
| ATTGTTCG | -0.0518 |
| CAACCGAG | -0.266 |
| GCTCGAAA | 0.036 |
| ATCTCCTG | 0.115 |
| CCCACCGC | -0.127 |
| GACCTCAA | -0.144 |
| CAGCGAAG | -0.173 |
| AAAGCTGT | -0.0926 |
| GCCAATAA | 0.201 |
| CTTCTTAC | -0.0205 |
| TATAAAGA | -0.0258 |
| CCCGGCCC | 0.0317 |
| ACTAAGTC | -0.0346 |
| ACTATCGC | -0.164 |
| GCGGGGCC | 0.131 |

| Sequence | PBM E-score |
| --- | --- |
| ACAGTCCG | -0.19 |
| ACCCTATG | -0.057 |
| CGTATTAA | 0.114 |
| AGCTAGGG | 0.02 |
| ACTCTCGA | -0.111 |
| CAGCCCAC | -0.0398 |
| AACAAAAT | 0.119 |
| CAGGCTCC | 0.119 |
| AACCATCC | -0.131 |
| AACCTACC | -0.0387 |
| AATGAACG | -0.133 |
| AATACGAG | 0.0404 |
| CGAACACC | -0.135 |
| CATAGTTC | -0.035 |
| CTGGGGGA | -0.108 |
| CAATGGGG | 0.00495 |
| CCGCTCTA | 0.0454 |
| AGGAGGAC | -0.227 |
| CGGCATTA | 0.116 |
| CCCAGCGG | 0.0358 |
| ATTGGGCC | 0.138 |
| AACCACGG | -0.173 |
| ATATAATC | -0.0288 |
| GCATGGCC | -0.149 |
| GCCTTCCC | -0.185 |

| Sequence | PBM E-score |
| --- | --- |
| TCGTACGA | -0.274 |
| AGCGAACC | -0.113 |
| AGGTCACT | -0.0258 |
| ACGGTAGG | -0.221 |
| AGTGGAAC | 0.364 |
| CTGGGTAC | 0.121 |
| CAGGCTTA | -0.172 |
| TCCGTAGA | 0.0594 |
| TAAACCTA | 0.024 |
| ATGATCTA | -0.0433 |
| CGATAGCA | -0.177 |
| CTCATCAA | 0.0408 |
| CATACGGC | -0.262 |
| GATATAGA | 0.0968 |
| AGGGCGCC | 0.399 |
| ATTCGCTA | -0.14 |
| AAACCGTA | 0.0594 |
| AATCATCC | -0.0883 |
| CCTTCTAG | -0.0861 |
| CTGTCTGC | -0.0895 |
| AGGCTAGA | -0.101 |
| ACTAGGCT | -0.00625 |
| CACGCACC | 0.0442 |
| ACCAGTAC | 0.0315 |
| ACGGTTGG | -0.00426 |

| Sequence | PBM E-score |
| --- | --- |
| CGACCCCA | -0.00458 |
| CTCAACCA | 0.0391 |
| CGGTGCGC | -0.109 |
| CACTGCTC | 0.0126 |
| GGTTATAC | -0.0154 |
| CACGTCTA | -0.0627 |
| CGCACGAG | 0.00045 |
| CTATACAG | 0.00024 |
| AGTTCTTA | -0.114 |
| ATATACCC | -0.0594 |
| CGCGAGCG | -0.00528 |
| ATGAGAAT | 0.0213 |
| AAGACACT | -0.1 |
| AGGTCTGG | -0.171 |
| GACATACC | -0.198 |
| ATACACTG | 0.033 |
| GCTGGGAC | -0.138 |
| ACACTCGG | 0.0311 |
| AATCACTG | 0.0615 |
| GTATGAAC | -0.0577 |
| AATCTTTC | 0.0966 |
| GCACCCTA | 0.297 |
| AATCCGTA | -0.045 |
| GGGGTAAA | -0.199 |
| AGTAGGAG | 0.0108 |

| Sequence | PBM E-score |
| --- | --- |
| AGAAGGTG | 0.155 |
| GGGACTGA | -0.201 |
| CTGGATGA | 0.0353 |
| CCGCTAGA | -0.00443 |
| AGAAAGCT | -0.312 |
| TCAGATAA | -0.0721 |
| CGAAGAGA | 0.0171 |
| AGGCATCA | -0.162 |
| CGCCGACC | -0.117 |
| CCGCACCC | 0.184 |
| ACGCCCAG | 0.203 |
| GGCGGGCA | -0.0479 |
| ACGGACCT | -0.117 |
| AGGAAGCG | 0.354 |
| AGATCGCA | -0.185 |
| AACAGTCC | -0.291 |
| TAGTCGAA | 0.0281 |
| AGTACGAA | -0.0797 |
| GCTGGCGA | 0.146 |
| CAGTGGAC | -0.0204 |
| ATGCCTCA | -0.124 |
| CGGAGCAG | 0.0182 |
| GTAGTAGA | 0.115 |
| CAACAACA | -0.00729 |
| CGCCAGCA | -0.0899 |

| Sequence | PBM E-score |
| --- | --- |
| TATATGCA | 0.148 |
| ATGCGTAG | -0.184 |
| ACGATACT | -0.00437 |
| AATGCCAG | 0.106 |
| CCTGCATC | 0.162 |
| ATTATAGC | 0.103 |
| CGGCGAGA | -0.18 |
| ATGCCACC | -0.181 |
| CTACATAC | 0.079 |
| ATTATCCA | 0.0984 |
| CTGTGTTA | -0.145 |
| GGTTTCTA | 0.249 |
| CCGGCCAA | -0.0652 |
| GTCGTTCA | -0.0179 |
| GATTTAAC | -0.145 |
| CTACGGCA | 0.0224 |
| AATTGTGG | 0.166 |
| ACAGGTCG | 0.0483 |
| AACCAACC | -0.19 |
